T1: RBFOX1 RRM RbFoxmut (Fox-RRM*) (Homo sapiens, UniProt Q9NWB1 109-208, R118D;E147R;N151S;E152T)
T1 sequence: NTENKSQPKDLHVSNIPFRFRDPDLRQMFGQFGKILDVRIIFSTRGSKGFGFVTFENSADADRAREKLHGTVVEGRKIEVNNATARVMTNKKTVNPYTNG

B1: CUAUUGU (DNA:RNA)
RNA: GGGAGACCGGAAUUCAGAUUGUCCCUAUUGUUUAAAUCCCGUCGUAGCCACCA
DNA 1: CAATCTGAATTCCGGTCTCCC
DNA 2: TGGTGGCTACGACGGGATT
B2: AGCAAUU (DNA:RNA)
RNA: B1 RNA with C25A, U26G, A27C, U28A, U29A, G30U
DNA 1: CAATCTGAATTCCGGTCTCCC
DNA 2: TGGTGGCTACGACGGGATT
B3: GCUAGCC (DNA:RNA)
RNA: GGGAGACCGGAAUUCAGAUUGUCCGCUAGCCUUAAAUCCCGUCGUAGCCACCA
DNA 1: CAATCTGAATTCCGGTCTCCC
DNA 2: TGGTGGCTACGACGGGATT
B4: UCUCCCC (DNA:RNA)
RNA: B3 RNA with G25U, A28C, G29C
DNA 1: CAATCTGAATTCCGGTCTCCC
DNA 2: TGGTGGCTACGACGGGATT
B5: GCGUGAU (DNA:RNA)
RNA: B3 RNA with U27G, A28U, C30A, C31U
DNA 1: CAATCTGAATTCCGGTCTCCC
DNA 2: TGGTGGCTACGACGGGATT
B6: GUUUACU (DNA:RNA)
RNA: B1 RNA with C25G, A27U, U29A, G30C
DNA 1: CAATCTGAATTCCGGTCTCCC
DNA 2: TGGTGGCTACGACGGGATT
B7: CUAUCCG (DNA:RNA)
RNA: B1 RNA with U29C, G30C, U31G
DNA 1: CAATCTGAATTCCGGTCTCCC
DNA 2: TGGTGGCTACGACGGGATT
B8: GUUGGGU (DNA:RNA)
RNA: B1 RNA with C25G, A27U, U28G, U29G
DNA 1: CAATCTGAATTCCGGTCTCCC
DNA 2: TGGTGGCTACGACGGGATT
B9: CAGGCAA (DNA:RNA)
RNA: B1 RNA with U26A, A27G, U28G, U29C, G30A, U31A
DNA 1: CAATCTGAATTCCGGTCTCCC
DNA 2: TGGTGGCTACGACGGGATT
B10: GGGUAUG (DNA:RNA)
RNA: B1 RNA with C25G, U26G, A27G, U29A, G30U, U31G
DNA 1: CAATCTGAATTCCGGTCTCCC
DNA 2: TGGTGGCTACGACGGGATT
B11: AUGUAGA (DNA:RNA)
RNA: B1 RNA with C25A, A27G, U29A, U31A
DNA 1: CAATCTGAATTCCGGTCTCCC
DNA 2: TGGTGGCTACGACGGGATT
B12: GCUUCAU (DNA:RNA)
RNA: B3 RNA with A28U, G29C, C30A, C31U
DNA 1: CAATCTGAATTCCGGTCTCCC
DNA 2: TGGTGGCTACGACGGGATT
B13: CUUACGG (DNA:RNA)
RNA: B1 RNA with A27U, U28A, U29C, U31G
DNA 1: CAATCTGAATTCCGGTCTCCC
DNA 2: TGGTGGCTACGACGGGATT
B14: ACGCUAA (DNA:RNA)
RNA: B1 RNA with C25A, U26C, A27G, U28C, G30A, U31A
DNA 1: CAATCTGAATTCCGGTCTCCC
DNA 2: TGGTGGCTACGACGGGATT
B15: CAGACUG (DNA:RNA)
RNA: B1 RNA with U26A, A27G, U28A, U29C, G30U, U31G
DNA 1: CAATCTGAATTCCGGTCTCCC
DNA 2: TGGTGGCTACGACGGGATT
B16: GACUGCC (DNA:RNA)
RNA: B3 RNA with C26A, U27C, A28U
DNA 1: CAATCTGAATTCCGGTCTCCC
DNA 2: TGGTGGCTACGACGGGATT
B17: GCGUGGA (DNA:RNA)
RNA: B3 RNA with U27G, A28U, C30G, C31A
DNA 1: CAATCTGAATTCCGGTCTCCC
DNA 2: TGGTGGCTACGACGGGATT
B18: CAACGAG (DNA:RNA)
RNA: B1 RNA with U26A, U28C, U29G, G30A, U31G
DNA 1: CAATCTGAATTCCGGTCTCCC
DNA 2: TGGTGGCTACGACGGGATT
B19: AAGUUAA (DNA:RNA)
RNA: B1 RNA with C25A, U26A, A27G, G30A, U31A
DNA 1: CAATCTGAATTCCGGTCTCCC
DNA 2: TGGTGGCTACGACGGGATT
B20: UAUGCGG (DNA:RNA)
RNA: B1 RNA with C25U, U26A, A27U, U28G, U29C, U31G
DNA 1: CAATCTGAATTCCGGTCTCCC
DNA 2: TGGTGGCTACGACGGGATT

Substitutions are numbered along the chain they refer to; changes in the protein carry UniProt numbers. This is one part of the list.

Here are results for 20 molecules from article PMC9911399, “Two distinct binding modes provide the RNA-binding protein RbFox with extraordinary sequence specificity”.

The target in this test is T1, RBFOX1 RRM RbFoxmut (Fox-RRM*). The test can be described thus: EMSA; HiTS-Eq, 1 nM pool, 10 min; buffer printed only for the single-RNA assays: 10 mM Tris pH 7.5, 150 mM NaCl, 3.4 mM EDTA, 0.001% NP-40, 30 C. As to conditions: tags: His6 N-terminal (pET28a); label: 5' 32P. The method in brief: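 Purified RbFox RRM, wild type or mutant, was incubated for 10 min in 50 µL with 1 nM of a 5′-radiolabelled RNA pool carrying 7 randomized nucleotides, whose flanks were annealed to DNA oligonucleotides, over a series of increasing protein concentrations. Unbound RNA was resolved on 8% native PAGE, cut out, reverse-transcribed, barcoded by PCR and sequenced on an Illumina HiSeq 2500. Relative association constants were derived from changes in read counts for each RNA species versus the control reaction and normalised to the cognate motif.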
In the case of B1, the binding signal is 0.146 KA relative to UGCAUGU. In the case of B2, the binding signal is 0.0706 KA relative to UGCAUGU. The value for B3 was 0.125 KA relative to UGCAUGU.

For B4, the binding signal was 0.064 KA relative to UGCAUGU. B5: the binding signal was 0.136 KA relative to UGCAUGU. As to B6, the binding signal was 0.115 KA relative to UGCAUGU. For B7 the value was 0.0597 KA relative to UGCAUGU. The value for B8 was 0.115 KA relative to UGCAUGU; that for B9 was 0.0621 KA relative to UGCAUGU.

For B10, the binding signal was 0.93 KA relative to UGCAUGU. For the molecule B11, the binding signal is 0.152 KA relative to UGCAUGU. In the case of B12, the binding signal is 0.101 KA relative to UGCAUGU. As for B13, the binding signal is 0.0934 KA relative to UGCAUGU. The value for B14 was 0.138 KA relative to UGCAUGU; that for B15 was 0.0995 KA relative to UGCAUGU; that for B16 was 0.173 KA relative to UGCAUGU. For B17 the value was 0.092 KA relative to UGCAUGU.

For the molecule B18, the binding signal was 0.0907 KA relative to UGCAUGU. Take B19: the binding signal was 0.143 KA relative to UGCAUGU. For B20 the value was 0.118 KA relative to UGCAUGU.
